The source of these data is ChEMBL document CHEMBL4888484, “Replenishing the malaria drug discovery pipeline: Screening and hit evaluation of the MMV Hit Generation Library 1 (HGL1) against asexual blood stage Plasmodium falciparum ,using a nano luciferase reporter read-out” (2022).

Molecules are shown by their SMILES. The campaign covered roughly 150,000 compounds. About 540 (0.36%) showed an effect of 50% or more. This is one part of the list.

In the assay the test system is Plasmodium falciparum. The assay is described as follows: Primary screen in NF54 nanoGlo assay, in single point, at 2uM, 72h; a lower Z score goes with more inhibition. It is filed as functional, Erythrocyte. Conditions: timepoint 72 hour.
`O=C(NCCCN1CCOCC1)c1cnc2c(Cl)cccc2c1O`: the “% Inhibition” value was determined as 3% and the Z score was -0.48.
On the same counts, the results for `CC(C)(C)OC(=O)C1C[C@H](CNC(=O)C2CCCC(=O)N2)[C@H](O)C1` (stereo partly drawn) are -1% and 0.18.
Regarding `CCC[C@@H](C(=O)O)n1ccc(NC(=O)c2ccc3c(c2)CCOC3)n1`, the “% Inhibition” value is reported as -5% and the Z score stood at 0.59.
`CCOC(=O)N(C)c1ccc(NC(=O)N2CCC[C@H](n3nccc3C(F)(F)F)C2)cc1`: the “% Inhibition” value is on record as -8% and the Z score stood at 0.72.
On the same counts, the results for `Cc1ccc(C2CC(=O)N(Cc3ccc4c(c3)OCO4)C(=O)C2)cc1` are -8% and 0.93.
Turning to `Cc1nc(N2CCOCC2)nc2c1CCC2`, the “% Inhibition” value is listed as -2% and the Z score is on record as 0.27.
The like results for `CCn1ccc2cc(CCC(=O)N3CCN(CC(C)C)CC3)ccc21` were, in that order, -6% and 0.63.
On the same counts, the results for `COc1cc2nc(-c3cccnc3)n(-c3cc(C(C)(C)C)c(O)c(C(C)(C)C)c3)c2cc1OC` are 1% and -0.18.
The like results for `CCN1CCCn2ccnc2[C@@H]1C1CCN(Cc2ccccc2)CC1` were, in that order, -2% and 0.34.
Turning to `COc1cccc(C(=O)NC[C@H](OC)c2cc3ccccc3o2)c1`, the “% Inhibition” value is -9% and the Z score amounted to 1.03.
The like results for `CN(C)C(=O)[C@@]12CN(Cc3ccccn3)C[C@@H]1CN(C(=O)c1ccccc1)C2` were, in that order, -13% and 1.76.
The like results for `O=S(=O)(NCC1(C2CC2)CCC1)[C@H]1CCOC1` were, in that order, -11% and 2.06.
For the compound `O=C(CCn1cnccc1=O)NC[C@@]12CCC[C@@H]1OCC2`, the “% Inhibition” value was -10% and the Z score is on record as 1.24.
On to `Fc1ccc(-c2nnc3n2C[C@@H](NCc2cccnc2)CC3)cc1`, for which the “% Inhibition” value came to 3% and the Z score is recorded as -0.38.
On the same counts, the results for `Cc1ncc(CN2CCC[C@H](S(=O)(=O)NC3CCCC3)C2)s1` are 1% and -0.18.
The like results for `O=C(NCCc1c[nH]cn1)c1cccc(NCc2cccs2)c1` were, in that order, -8% and 0.98.
On the same counts, the results for `O=C1OC2(c3ccccc31)C(c1ccccc1)CC(=O)N2Cc1ccccc1` (stereo not drawn) are 34% and -4.38.
Take `Cc1ccc(CN2CC[C@H](c3noc(-c4ccccn4)n3)C2)o1`: the “% Inhibition” value is listed as -10% and the Z score was determined as 1.43.
On the same counts, the results for `CCN(CC)C(=O)Nc1ccc(-c2c(C)nn(CC(N)=O)c2C)cc1` are 1% and -0.2.
On the same counts, the results for `C#CCN1CCC(C(=O)N2CC3CCCCC3C2)CC1` (stereo not drawn) are 22% and -2.53.
On the same counts, the results for `O=C(Nc1nc(-c2cccs2)cs1)[C@@H]1COc2ccccc2O1` are -8% and 0.73.
For the compound `Clc1c(CNc2ncnc3c2CCC3)nc2ccccn12`, the “% Inhibition” value was -3% and the Z score amounted to 0.37.
On the same counts, the results for `COc1cccc(CC(=O)Nc2nc3ccc(Cl)cc3o2)c1` are -3% and 0.63.
On the same counts, the results for `CN(C)CCOC1CCN(C(=O)[C@]2(c3ccccc3F)CC2(C)C)CC1` are 3% and -0.56.
On the same counts, the results for `O=C(CCC1CCCC1)NCC(=O)N1CCCCCCNC(=O)C[C@H]1c1ccccc1` are -9% and 1.34.
Consider `C=CCNC(=O)N(C)Cc1nccn1C`, for which the “% Inhibition” value is recorded as -8% and the Z score stood at 0.8.
Consider `COc1cc2c(cc1OC)CN(C(=O)c1nc(=O)[nH]c3ccccc13)CC2`, for which the “% Inhibition” value is -5% and the Z score is 0.99.
The like results for `Cc1ccc2c(c1Br)N(C(=O)[C@@H]1COCCO1)CCC2` were, in that order, -6% and 1.13.
The like results for `C[C@H]1CN(C(=O)c2cnccn2)CCO1` were, in that order, -7% and 0.75.
As for `Cc1ccc(-c2cn[nH]c2[C@H]2CCCN(C(=O)Cn3ccnc3)C2)cc1`, the “% Inhibition” value is given as 1% and the Z score is recorded as -0.22.
On the same counts, the results for `COCC(=O)N1CCC(Oc2ccncc2Cl)CC1` are -2% and 0.4.
On the same counts, the results for `NC[C@H]1c2ccccc2C=Cc2ccc(Cl)cc21` are -1% and 0.08.
For `COc1cccc(NC(=O)N[C@H]2CCN(C(=O)c3cccn3C)[C@@H]2C(=O)N2CCC[C@@H]2C(N)=O)c1`, the “% Inhibition” value was found to be 4% and the Z score is given as -0.55.
As to `COc1ccccc1O[C@@H](C)CNc1ccc(C#N)nc1`, the “% Inhibition” value is on record as -4% and the Z score came to 0.54.
Regarding `Cc1ccc(N[C@@H](C)Cn2cc(Br)cn2)cc1C(N)=O`, the “% Inhibition” value was determined as 10% and the Z score is recorded as -1.26.
The like results for `CCN(C(=O)N1CCC(C(=O)N2CCn3cncc3C2)CC1)C(C)C` were, in that order, -7% and 0.96.
On the same counts, the results for `CC(C)O[C@@H](C)c1n[nH]c(=O)n1Cc1ccco1` are -1% and 0.08.
The like results for `O=C(CCn1cccn1)N1CC2OCCN(Cc3ccccc3)C2C1` (stereo not drawn) were, in that order, 4% and -0.33.
`CO[C@H]1CC[C@H](NC(=O)c2cc(C)[nH]c(=O)c2)CC1`: the “% Inhibition” value is given as -28% and the Z score is 2.49.
The like results for `Cc1ccc(Cl)c(NC(=O)Cc2ccn[nH]2)c1` were, in that order, -17% and 1.72.
The like results for `CCn1cnc(NC(=O)NCc2nccn2CC)n1` were, in that order, 3% and -0.27.
The like results for `COc1c[nH]c(C(=O)N2CCN(c3cccc(Cl)c3)CC2)cc1=O` were, in that order, 1% and -0.11.
`COC(=O)c1cc(S(=O)(=O)N2CCC[C@H]2C(=O)Nc2ccc(OC)c(Cl)c2)cn1C`: the “% Inhibition” value is listed as -10% and the Z score came to 1.79.
On the same counts, the results for `COc1ccccc1NC(=O)c1ccc([C@H]2Nc3cc(C(F)(F)F)ccc3S(=O)(=O)N2)cc1` are 6% and -0.82.
The like results for `O=C(N/C=C/c1nc2ccccc2s1)c1ccco1` were, in that order, 6% and -1.1.
Consider `Nc1[nH]nc(C2CCCCC2)c1-c1ccc2c(c1)OCO2`, for which the “% Inhibition” value is 8% and the Z score is given as -1.11.
On the same counts, the results for `CC(=O)N1CCCC1C1CCCN1C(C)c1nnc(-c2cccs2)o1` (stereo not drawn) are -16% and 1.66.
The like results for `CC(NC(=O)C1CCC(=O)NC1)c1ccccc1` (stereo not drawn) were, in that order, -9% and 1.39.
For the compound `C#CC[C@@H](CO)NC(=O)Nc1cccc(C)n1`, the “% Inhibition” value is given as 9% and the Z score is recorded as -0.96.
As to `Cc1ccc(F)c(N2CCCC(NC(=O)NC(C)c3nc[nH]n3)C2)c1` (stereo not drawn), the “% Inhibition” value stood at 4% and the Z score was -0.37.
On the same counts, the results for `O=C(C[C@H]1C(=O)NCCN1Cc1cccs1)NC(c1ccccc1)c1ccccc1` are -8% and 0.99.
The like results for `CC(C)[C@H](NS(=O)(=O)CC1CCOCC1)c1ccccn1` were, in that order, -10% and 1.91.
The like results for `CCCCN(C)c1cc([C@H]2C[C@@H](N)C2)nc(N)n1` were, in that order, -3% and 0.38.
`COc1ccc(NC(=O)C2CCC(c3ccccc3)N(C(=O)NC(C)C)C2)cc1` (stereo not drawn): the “% Inhibition” value is -13% and the Z score was 2.26.
The like results for `O=C(Nc1ccc(Cl)cc1F)N1C[C@@H]2C[C@H](NS(=O)(=O)c3cccs3)[C@H]1C2` were, in that order, 35% and -3.98.
The like results for `Cc1ccc(CNC(=O)[C@]2(C)Cn3cnc(C(=O)N4CCN(c5ccccc5)CC4)c3C(=O)N2C2CC2)cc1` were, in that order, -12% and 1.23.
The like results for `Cc1ccc(C(=O)NC[C@H]2CN(C(C)C)CC23CCCCC3)s1` were, in that order, -5% and 0.89.
As to `C=CCOc1cc(C)c2c(c1C)[C@H](O)C([C@H](C)C(=O)NCCOC)CC2` (stereo partly drawn), the “% Inhibition” value is given as 33% and the Z score was -3.78.
For the compound `CCOC1CC(NC(=O)N2CCC(n3cc(Cl)cn3)C2)C12CCCO2` (stereo not drawn), the “% Inhibition” value is given as -10% and the Z score came to 1.24.
The like results for `CCOc1ccccc1C(=O)N[C@@H](CC)CO` were, in that order, -10% and 1.4.
The like results for `COC(=O)CNC(=O)N1CCCCCCn2c(nnc2-c2ccc(F)cc2)CC1` were, in that order, -4% and 0.51.
As for `CC(C)[C@H](CO)NC(=O)c1cn(C2CCCCC2)nn1`, the “% Inhibition” value was -1% and the Z score came out at 0.14.
Turning to `CCN1C(=O)C2(CCN(S(=O)(=O)c3ccc(OC)cc3)CC2)c2ccccc21`, the “% Inhibition” value is listed as -7% and the Z score is reported as 1.14.
The like results for `O=C(NC[C@@H](c1ccccc1Cl)N1CCOCC1)c1ccc(Br)o1` were, in that order, -10% and 1.37.
On the same counts, the results for `O=C(CN1CCC[C@@H]1CO)NC1CCCCCCC1` are -8% and 1.17.
The like results for `Cc1cc(C(=O)N2C[C@H]3CCC[C@@H](C3)C2)ccc1F` were, in that order, -5% and 0.85.
For `Cc1ccccc1NC(=O)[C@]1(C)Oc2cccnc2N(C)C1=O`, the “% Inhibition” value was -3% and the Z score was found to be 0.6.
On the same counts, the results for `O=C(NCc1nnc2ccccn12)c1cccc(=O)n1CCOc1ccccc1Cl` are 34% and -3.8.
The like results for `CC1(C2CCCN(Cc3ccc4ccccc4n3)C2)NC(=O)NC1=O` (stereo not drawn) were, in that order, -1% and 0.12.
The like results for `Cc1nnc([C@H]2CCCN(Cc3nccc4c3CCCC4)C2)o1` were, in that order, -4% and 0.51.
For the compound `Cc1cccc(Cn2c([C@@H]3CCCCN3C)n[nH]c2=O)c1`, the “% Inhibition” value is -14% and the Z score is 1.31.
The like results for `Cc1ncc(Cl)c(C(=O)N2CCC(c3nnc(CN4CCCC4)n3C)CC2)n1` were, in that order, -6% and 1.12.
On the same counts, the results for `O=C1CC[C@@H](CN(Cc2ccccn2)C(=O)CN2CCCCCC2)N1` are -9% and 1.9.
On the same counts, the results for `CCS(=O)(=O)c1cccc(CC(=O)N(C)c2cccc(C#N)c2)c1` are -12% and 1.21.
Take `CCCCC[C@H](NC(=O)C1CCCC1)C(=O)O`: the “% Inhibition” value is listed as -7% and the Z score was 1.16.
In the case of `CC(=O)Nc1ccc(C(C)=O)cc1OCC(=O)Nc1ccc2c(c1)OCCCO2`, the “% Inhibition” value was -13% and the Z score stood at 1.75.
On the same counts, the results for `CC1CCN(CC(=O)N2c3ccccc3[C@](C)(c3ccc(Cl)cc3)CC2(C)C)CC1` are -4% and 0.5.
Regarding `CCc1ccc(-c2cc3n(n2)C[C@@](C)(C(=O)NC2CCCCC2)N(c2cccc(C)c2C)C3=O)cc1`, the “% Inhibition” value was -2% and the Z score was determined as 0.32.
On the same counts, the results for `CC(C)C[C@@H]1N=C(O)N(CCc2c[nH]c3ccccc23)C1=O` are 2% and -0.19.
On the same counts, the results for `Cc1cc(OCC(=O)N2CCOc3c(F)ccc(F)c32)no1` are -5% and 0.75.
The like results for `O=C(NCCc1ccc(Cl)cc1)c1csc(NS(=O)(=O)c2cccs2)n1` were, in that order, -9% and 1.73.
Turning to `CCn1c[n+](CC(=O)c2ccccc2)cn1`, the “% Inhibition” value was -5% and the Z score is recorded as 0.85.
With `CCn1c([C@H](C)NCc2nnc(C(=O)NCc3ccc(C)cc3)s2)nc2ccccc21`, the “% Inhibition” value is on record as -8% and the Z score was 0.95.
The like results for `CN1CC[C@@H](c2nc(-c3ccc(OCC(F)F)cn3)no2)S1(=O)=O` were, in that order, -5% and 0.46.

The % Inhibition is the drop in the measured response relative to a control, in per cent.
